Values joined by “and” are separate entries in the source; they are usually repeats but may differ in a detail not shown here. Identical values can stand only once. Screen size: about 110,000 compounds; about 230 (0.21%) showed an effect of 50% or more. The list shows a part of the results.
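Note: 30 min substrate incubation versus DMSO and 10 µM JCP410 controls.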

This assay deals with DPAP1 (Plasmodium falciparum, UniProt Q8IIJ9). Put plainly: primary screen, percent inhibition; read by cleavage of a fluorogenic dipeptide substrate; higher = more effect of the substance. Further details: species or system P. falciparum D10 trophozoite lysates; single well.
Chain of DPAP1 (Q8IIJ9 whole entry, looked up): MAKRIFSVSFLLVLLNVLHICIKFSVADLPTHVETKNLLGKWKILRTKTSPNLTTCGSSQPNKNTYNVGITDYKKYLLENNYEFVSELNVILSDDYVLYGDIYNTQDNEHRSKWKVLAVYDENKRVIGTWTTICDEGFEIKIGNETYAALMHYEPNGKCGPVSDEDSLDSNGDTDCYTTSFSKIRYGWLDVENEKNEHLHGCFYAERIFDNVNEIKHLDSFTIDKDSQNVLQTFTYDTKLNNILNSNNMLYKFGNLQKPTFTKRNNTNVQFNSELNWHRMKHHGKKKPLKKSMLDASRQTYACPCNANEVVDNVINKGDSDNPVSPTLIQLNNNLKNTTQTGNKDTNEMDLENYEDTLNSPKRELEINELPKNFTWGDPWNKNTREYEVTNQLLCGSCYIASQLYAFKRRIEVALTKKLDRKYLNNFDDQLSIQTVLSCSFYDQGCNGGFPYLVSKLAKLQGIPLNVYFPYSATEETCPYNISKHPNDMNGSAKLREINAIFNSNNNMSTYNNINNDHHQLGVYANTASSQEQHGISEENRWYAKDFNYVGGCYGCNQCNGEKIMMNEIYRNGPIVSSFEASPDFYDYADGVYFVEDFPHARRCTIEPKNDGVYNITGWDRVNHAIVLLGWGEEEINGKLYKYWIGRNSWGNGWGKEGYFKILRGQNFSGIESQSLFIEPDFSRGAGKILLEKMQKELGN
Turning to `O=C(NCc1ccccn1)C1CCN(c2ncccn2)CC1`, the “% Inhibition @ 10 uM” value is -0.946%.

In the case of `CC(CNC(=O)Cn1ncc2ccccc21)c1ccccc1` (centres unmarked), the “% Inhibition @ 10 uM” value is reported as 0.0198%. For `Cc1cc(N2CCNCC2)nc2c(C)c(Cl)ccc12`, the “% Inhibition @ 10 uM” value is reported as -0.233%. For `CC1CCCCN1S(=O)(=O)c1ccc(CCN)cc1` (centres unmarked), the “% Inhibition @ 10 uM” value is reported as -1.24%. Consider `CC(=O)N1CCN(CCNC=C2C(=O)N(C3CCCCC3)C(=O)N(C3CCCCC3)C2=O)CC1`, for which the “% Inhibition @ 10 uM” value is reported as 5.24%. Turning to `CC1CCN(Cc2nnc(-c3ccc4c(c3)OCO4)o2)CC1`, the “% Inhibition @ 10 uM” value is listed as -0.0709%.

As for `O=C(O)c1ccc(-n2nnnc2-c2ccccc2)cc1`, the “% Inhibition @ 10 uM” value was 4.41%.

On to `COc1ccc(CCCC(=O)Nc2ccc(F)cc2)cc1C`, for which the “% Inhibition @ 10 uM” value was 3.86%. For `CCOc1ccc(-c2nc(-c3ccc(C)cc3)no2)cc1` the value was 7.76%; for `Cc1ccccc1Cn1c(=O)n(CCC(C)C)c(=O)c2cccnc21`, -1.66%; for `CC1C/C(=C\c2cccnc2)C(=O)/C(=C/c2cccnc2)C1` (centres unmarked), 6.2%. In the case of `CCC12CN3CC(C)(CN(C1)C3c1cccc(Br)c1)C2=O` (centres unmarked) it was -3.08%; in that of `CC(CNC(=O)c1cccs1)NC(=O)c1cccs1` (centres unmarked), -1.79%. For the molecule `O=C1/C(=C/c2ccc3nccnc3c2)CN(Cc2ccccc2)C/C1=C\c1ccc2nccnc2c1`, the “% Inhibition @ 10 uM” value was 6.89%. `N#CCNC(=O)[C@H](Cc1c[nH]c2ccccc12)NC(=O)c1ccccc1`: the “% Inhibition @ 10 uM” value is reported as -0.214%. For `CC1CN(C2CC(=O)N(c3ccccc3)C2=O)CC(C)O1` (centres unmarked), the “% Inhibition @ 10 uM” value is listed as -2.53%.

For `CC(=O)Nc1cc2c(s1)C1(CCCCC1)CC(=O)N2`, the “% Inhibition @ 10 uM” value is -0.872%. In the case of `Cc1cc(C)cc(N(CC(=O)NC2CC2)S(=O)(=O)c2ccccc2)c1` it was -6.86%; in that of `COc1ccc2c(C)c(CC(=O)N3CCCCC3)c(=O)oc2c1C`, 4.13%. In the case of `COc1ccc(OC)c(/C=C2\N=C(C3CCCCC3)OC2=O)c1` it was 6.25%; in that of `Cc1cc(C)cc(NCC(=O)Nc2c(C)cccc2C)c1`, -7.55%.

Take `CCn1ncc(CN(C)C(=O)c2cnn3c(C(F)F)cc(-c4ccc(OC)cc4)nc23)c1C`: the “% Inhibition @ 10 uM” value came out at 1.28%.

For `CCOC(=O)c1c(NC(=O)C(CC)Sc2nc(N)cc(O)n2)sc2c1CCCC2` (centres unmarked), the “% Inhibition @ 10 uM” value turned out to be 1.63%. For `CC(=O)c1ccc(NC(=O)C2CC(=O)OC2c2ccccc2)cc1` (centres unmarked) the value was -4.61%. Regarding `COc1ccc(CC(=O)N(Cc2nc(-c3ccc(C)cc3)no2)C(C)C)cc1OC`, the “% Inhibition @ 10 uM” value is listed as -4.94%. In the case of `Cc1ccc(Cl)cc1NC(=O)C1C2C=CC(C2)C1C(=O)O` (centres unmarked), the “% Inhibition @ 10 uM” value is recorded as -3.49%.

Consider `CCSC1=C(C#N)C(c2ccccc2)C(C(=O)Nc2ccccc2)=C(C)N1` (centres unmarked), for which the “% Inhibition @ 10 uM” value was -2.47%. As to `Cc1ccc(OCCCn2ccnc2)c(C)c1`, the “% Inhibition @ 10 uM” value was found to be 1.35%. As for `CCOc1ccccc1C1C(C#N)=C(N)OC2=C1C(=O)CC(C)(C)C2` (centres unmarked), the “% Inhibition @ 10 uM” value was -4.33%. As for `C=CCN1C(=O)NC(=O)/C(=C/c2ccc(OCc3ccc(Cl)cc3)cc2)C1=O`, the “% Inhibition @ 10 uM” value stood at 1.25%.

`c1ccc(-c2nc3c4ccccc4nc(NCCN4CCCC4)n3n2)cc1`: the “% Inhibition @ 10 uM” value was 0.981%. In the case of `CCNC(=O)c1c(NC(=O)Cc2coc3ccc(C)cc23)sc2c1CCCC2`, the “% Inhibition @ 10 uM” value was -0.671%. As for `COc1ccccc1CNC(=O)CN(Cc1ccccc1)S(=O)(=O)c1ccc(F)cc1`, the “% Inhibition @ 10 uM” value amounted to 1.27%. In the case of `O=C1/C(=C\c2ccccn2)CN(Cc2ccccc2)C/C1=C\c1ccccn1` it was 55.7%; in that of `COc1ccc(NS(=O)(=O)c2ccc(NC(=O)c3ccccc3OC)cc2)c(OC)c1`, 4.57%. Take `CCC(Cc1ccccc1)NC(=O)c1csc2c1CCCC2` (centres unmarked): the “% Inhibition @ 10 uM” value is recorded as 0.277%. For `O=C(/C(=C/c1ccc(O)cc1)c1nc2ccccc2[nH]1)c1ccccc1` the value was 4.52%; for `Cc1ccc(CNCc2c(C(=O)O)c(C)n(Cc3ccccc3F)c2C)o1`, -3.67%; for `C=C(NC(C)=O)C(=O)c1ccc([N+](=O)[O-])cc1`, 2.38%. As for `CC1CN(C(=O)c2ccccc2)C(C)CN1C(=O)c1ccccc1` (centres unmarked), the “% Inhibition @ 10 uM” value is reported as -6.05%. On to `CCOC(=O)N1CCN(C(=O)CCCc2nnc3n(CCC(C)C)c(=O)c4sccc4n23)CC1`, for which the “% Inhibition @ 10 uM” value was -6.08%. For `C[S+](O)c1ccc(OCC(=O)O)cc1` (centres unmarked) the value was -4.02%; for `O=S(=O)(NC1CCCCC1)c1ccc2c(c1)OCCO2`, 0.147%; for `CC1CCN(c2c(S(=O)(=O)c3ccccc3)cnc3cc4c(cc23)OCCO4)CC1`, -4.17%. In the case of `Cc1noc2ncnc(NCc3ccc(F)cc3)c12`, the “% Inhibition @ 10 uM” value is -4.4%. As to `Nc1ccc2oc(-c3ccc(Cl)cc3)nc2c1`, the “% Inhibition @ 10 uM” value came to 1.13%. For `COc1ccccc1C(=O)N/C(=C\c1ccc2c(c1)OCO2)C(=O)OC(C)C` the value was -0.0626%; for `COc1ccc(OC)c(CNC(=O)Cn2cnc3onc(-c4ccc(F)cc4)c3c2=O)c1`, -3.05%. Consider `CSc1ccccc1NC(=O)CN(C)S(=O)(=O)c1ccccc1`, for which the “% Inhibition @ 10 uM” value came out at 0.658%. For `COc1cc(OC)cc(C(=O)Nc2nc(C)c(C)s2)c1` the value was -1.99%; for `CCCCCCn1c(=O)c(C(=O)Nc2cc(C)ccn2)c(O)c2ccccc21`, 5.31%; for `COc1ccc2nc(C)c(C(=O)OCCN(C)C)cc2c1`, -4.62%.

As for `COc1cccc(-c2noc(-c3cc4cc(Br)ccc4oc3=O)n2)c1OC`, the “% Inhibition @ 10 uM” value worked out at 6.05%. In the case of `CCOc1cc2c(cc1OC)C(c1ccc(F)cc1)NCC2` (centres unmarked) it was 0.83%; in that of `CC(C)C1=CC2=C(CC(C)(C)CC2=O)OC1N(C)C` (centres unmarked), -7.27%; in that of `CC(C)(C)N1C(=O)c2ccc(C(=O)Nc3nccs3)cc2C1=O`, 2.01%. Consider `O=C1c2nccnc2C(O)N1c1ccc(Br)cn1` (centres unmarked), for which the “% Inhibition @ 10 uM” value is recorded as -1.08%. As to `N#Cc1c2n(c3c(=O)n(Cc4ccc(Cl)cc4)cnc13)CCCC2`, the “% Inhibition @ 10 uM” value was 7.1%.

Turning to `Cc1c(C#N)sc2nc(-c3ccccc3)nc(N)c12`, the “% Inhibition @ 10 uM” value is given as 2.16%. With `CCC(C)N(CCNC(=O)c1cc2c(s1)-c1ccccc1S(=O)(=O)C2)Cc1ccco1` (centres unmarked), the “% Inhibition @ 10 uM” value was found to be 2.57%. Turning to `Cc1ccsc1CCNc1c(-c2ccc(C(C)C)cc2)c(=O)c1=O`, the “% Inhibition @ 10 uM” value came out at 0.867%.

For the molecule `CC(Cc1ccccc1)[N+]1=NO/C(=N/C(N)=O)C1` (centres unmarked), the “% Inhibition @ 10 uM” value came to 2.35%. Take `O=C(CSc1nnc(-c2ccc3c(c2)OCCO3)o1)NC1CCCCC1`: the “% Inhibition @ 10 uM” value turned out to be 1.8%. For `COc1ccc(-c2cc(C(F)(F)F)n3nc(C(=O)N4CCCCCC4)cc3n2)cc1` the value was 1.81%; for `Cc1coc(NC(=O)c2sc3nc(-c4ccncc4)cc(C(F)(F)F)c3c2N)n1`, -1.1%. In the case of `CC(C)CCNC(=O)C1c2ccccc2C(=O)N(C)C1c1cn(C)c2ccccc12` (centres unmarked), the “% Inhibition @ 10 uM” value is -4.53%. For the molecule `CCOC(=O)c1c(NC(=O)CSCc2nc(C)cc(C(F)(F)F)n2)sc2c1CCCCC2`, the “% Inhibition @ 10 uM” value amounted to 2.8%. In the case of `COc1ccc(-c2noc(N3CCCC(C(=O)NCCC4=CCCCC4)C3)n2)cc1` (centres unmarked) it was 4.41%; in that of `Cc1ccc(C(=N)NOC(=O)c2ccc3c(c2)OCO3)n1C`, 0.9%.

In the case of `COc1ccc(NCc2cc(F)ccc2F)cc1`, the “% Inhibition @ 10 uM” value turned out to be 0.273%.

In the case of `Cc1cc(F)ccc1NCc1cccnc1`, the “% Inhibition @ 10 uM” value was -4.18%. As for `CC(C)CCNC(=O)c1cc2c(O)nc3ccccc3c2s1`, the “% Inhibition @ 10 uM” value is 4.51%.

In the case of `Cc1c(Cl)cccc1N(CC(=O)N1CCN(C)CC1)S(=O)(=O)c1ccccc1`, the “% Inhibition @ 10 uM” value is given as -4.82%. Consider `O=C(NC1CC1)c1ccc(C2SCC(=O)N2CCc2ccccc2)cc1` (centres unmarked), for which the “% Inhibition @ 10 uM” value is 0.843%. In the case of `Fc1ccccc1COc1ccc(Cl)cc1CNCC1CCCO1` (centres unmarked), the “% Inhibition @ 10 uM” value is -3.45%. As to `Cc1ccc(C(=O)C2=C(O)C(=O)N(CCc3ccccc3)C2c2ccncc2)cc1` (centres unmarked), the “% Inhibition @ 10 uM” value is on record as -5.54%. With `CCc1nc2sc3c(c2c2nnc(C)n12)CCCC3`, the “% Inhibition @ 10 uM” value is on record as -2.59%. Consider `CSCC[C@@H](C(=O)O)N1Cc2ccccc2C1=O`, for which the “% Inhibition @ 10 uM” value worked out at 0.708%. `O=C(O)CN1C(=O)C2C3c4ccccc4C(c4ccccc43)C2C1=O` (centres unmarked): the “% Inhibition @ 10 uM” value is listed as -5.28%. Consider `CO/C(O)=C1\C(C)=NC2=C(C(=O)c3ccccc32)C1c1ccc(-c2ccc(Cl)cc2)o1` (centres unmarked), for which the “% Inhibition @ 10 uM” value is given as -3.14%.

Regarding `CCc1ccc2occ(CC(=O)N(Cc3ccc(C(C)C)cc3)C3CCS(=O)(=O)C3)c2c1` (centres unmarked), the “% Inhibition @ 10 uM” value is recorded as -4.19%.

For the molecule `O=C(Cc1ccc(Cl)cc1)Nc1nc2ccccc2s1`, the “% Inhibition @ 10 uM” value is recorded as 2.02%. As for `O=C(c1nc2nc(-c3ccccc3)cc(C(F)(F)F)n2n1)N1CCCCC1`, the “% Inhibition @ 10 uM” value came to 1.87%. With `COc1ccc(S(=O)(=O)Nc2ccc3c(c2)OCO3)cc1`, the “% Inhibition @ 10 uM” value is -2.74%.

With `CC(C)C[C@H](NC(=O)c1cccc(-c2ccc(S(=O)(=O)N3CCCC3)s2)c1)C(=O)NCC#N`, the “% Inhibition @ 10 uM” value stood at 1.35%. For the molecule `CC1=C(C(=O)OCc2ccc3c(c2)OCO3)C(c2c(F)cccc2Cl)CC(=O)N1` (centres unmarked), the “% Inhibition @ 10 uM” value is recorded as -0.472%.

`Cc1cccc(-c2ccc(C(=O)N[C@@H](CC(C)C)C(=O)NCC#N)cc2)c1C`: the “% Inhibition @ 10 uM” value is listed as -8.26%. Take `COc1ccc(CNC(=O)CCn2c(=S)[nH]c3c([nH]c4ccc(OC)cc43)c2=O)cc1`: the “% Inhibition @ 10 uM” value is -9.6%. In the case of `CCCC1=C(C(=O)OCC)C(c2ccc(SC)cc2)C(C#N)=C(N)O1` (centres unmarked), the “% Inhibition @ 10 uM” value is -3.13%. In the case of `COc1cccc(CN2CCN(Cc3cccc(C)c3)CC2)c1OC` it was -4.16%; in that of `CCn1c(C(=O)O)c(CNC2CCC(C)CC2)c2ccccc21` (centres unmarked), 0.277%. `CN(C)Cc1cc(CN(C)C)c(O)c(-c2ccccc2)n1`: the “% Inhibition @ 10 uM” value was 0.986% and -1.86%. In the case of `Clc1cccc(OCCCCCN2CCCC2)c1` it was 1.29%. For the molecule `COC(=O)c1cn(C(=O)/C=C/c2ccccc2)c2ccccc12`, the “% Inhibition @ 10 uM” value is -4.51%. For `CCCc1ccc(OCC(=O)Nc2ccc(OC)cc2)cc1` the value was -2.66%; for `CC1=C(C(=O)Nc2ccc(Cl)cc2)C(c2ccccc2)NC(S)=N1` (centres unmarked), -7.54%; for `O=C(Nc1ccc(Cl)cc1)c1c(O)nc2ccccc2c1O`, -3.16%. `Cc1ccnc(NS(=O)(=O)c2ccc(C(C)(C)C)cc2)c1`: the “% Inhibition @ 10 uM” value is reported as -2.66%. As to `CCCSc1nc(O)cc(=O)n1C`, the “% Inhibition @ 10 uM” value is -7.02%. Turning to `CC1(C)CC(=O)C2=C(C1)OC(N)=C(C#N)C2(C(F)(F)F)C(F)(F)F`, the “% Inhibition @ 10 uM” value was found to be 2.46%. Turning to `Cc1c(C(=O)NCCc2ccccc2)oc2ccc3c(c12)C(=O)CC1(CCCC1)O3`, the “% Inhibition @ 10 uM” value is 3.87%.

The values are drawn from article PMC6919601, “Identification of Plasmodium dipeptidyl aminopeptidase allosteric inhibitors by high throughput screening” (PLoS ONE, 2019).
